Data from paper PMC4336329 (PLoS ONE, 2015).
Screen size: about 310,000 compounds; about 2,200 (0.71%) showed an effect of 50% or more. Effects have a minus sign here. The list shows a part of the results.

Each compound was assayed against human ether-à-go-go-related gene (hERG) potassium channel (human, UniProt Q12809) (assay: primary screen, population patch clamp on CHO cells stably expressing hERG).
human ether-à-go-go-related gene (hERG) potassium channel, sequence (Q12809 whole entry, looked up): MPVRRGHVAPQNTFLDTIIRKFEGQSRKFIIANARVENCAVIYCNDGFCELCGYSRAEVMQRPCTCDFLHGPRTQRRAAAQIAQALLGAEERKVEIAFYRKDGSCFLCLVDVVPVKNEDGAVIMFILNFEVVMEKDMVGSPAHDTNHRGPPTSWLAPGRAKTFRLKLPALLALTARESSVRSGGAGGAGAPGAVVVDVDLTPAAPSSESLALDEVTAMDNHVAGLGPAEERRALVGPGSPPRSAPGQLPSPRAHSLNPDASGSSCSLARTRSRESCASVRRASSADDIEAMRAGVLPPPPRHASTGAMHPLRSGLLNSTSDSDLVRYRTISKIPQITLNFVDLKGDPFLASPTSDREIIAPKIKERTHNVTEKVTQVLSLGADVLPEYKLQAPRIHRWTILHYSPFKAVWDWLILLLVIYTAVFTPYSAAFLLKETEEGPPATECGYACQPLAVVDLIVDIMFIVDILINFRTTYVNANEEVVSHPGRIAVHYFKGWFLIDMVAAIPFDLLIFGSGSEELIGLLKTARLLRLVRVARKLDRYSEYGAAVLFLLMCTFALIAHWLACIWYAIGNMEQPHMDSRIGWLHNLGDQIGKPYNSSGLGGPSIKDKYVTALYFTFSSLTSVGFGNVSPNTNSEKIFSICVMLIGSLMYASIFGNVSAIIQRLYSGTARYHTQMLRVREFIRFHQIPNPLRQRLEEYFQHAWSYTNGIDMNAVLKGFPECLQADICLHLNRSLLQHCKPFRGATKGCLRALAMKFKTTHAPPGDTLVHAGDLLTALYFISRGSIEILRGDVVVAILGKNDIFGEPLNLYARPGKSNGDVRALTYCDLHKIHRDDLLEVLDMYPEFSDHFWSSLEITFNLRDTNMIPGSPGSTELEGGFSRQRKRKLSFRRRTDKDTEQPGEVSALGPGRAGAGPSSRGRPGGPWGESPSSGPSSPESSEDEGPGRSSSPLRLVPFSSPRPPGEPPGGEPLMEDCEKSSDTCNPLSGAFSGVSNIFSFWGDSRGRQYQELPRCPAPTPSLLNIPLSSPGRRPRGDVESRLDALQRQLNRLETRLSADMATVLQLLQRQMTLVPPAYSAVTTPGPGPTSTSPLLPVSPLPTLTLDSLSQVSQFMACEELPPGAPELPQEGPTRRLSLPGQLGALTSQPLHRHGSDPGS

`CCC(=O)c1ccc(OCC(=O)OCC(=O)c2c(N)n(C)c(=O)n(C)c2=O)cc1` was tested. Which “hERG current change (%, negative = inhibition) at 1uM” value did it give?
Its value is 8.97%.

For `Cc1cc(C)n(-c2ccc(C(=O)OCC(=O)NC(c3ccccc3)c3ccccc3)cc2)n1`, which “hERG current change (%, negative = inhibition) at 1uM” value is on record?
The value was 24.9%.

How did the “hERG current change (%, negative = inhibition) at 1uM” value turn out when `CCOc1ccc(CN2CCCC(CNC(=O)c3ccc(F)cc3)C2)cc1CO` (stereo not shown) was run?
The value was -50.5%.

For `CC[C@@]12C(=O)N(c3ccc(C)cc3)C(=O)N1[C@H](c1cccc(C)c1)[C@@H]1C(=O)N(Cc3ccccc3)C(=O)[C@@H]12`, which “hERG current change (%, negative = inhibition) at 1uM” value is on record?
Its value is 12.2%.

With `COc1ccccc1-c1nn(Cc2ccccc2)cc1C(=O)N1CCN(c2ncccn2)CC1` as the compound, how does the “hERG current change (%, negative = inhibition) at 1uM” value read?
The value was 7.89%.

`CN(C)CC(C)(C)NS(=O)(=O)c1ccc(Cl)cc1` was tested. Which “hERG current change (%, negative = inhibition) at 1uM” value did it give?
The value was 3.84%.

With `O=C(CCn1c(=O)oc2cc(Cl)ccc21)Nc1ccc(N2CCOCC2)cc1` as the compound, how does the “hERG current change (%, negative = inhibition) at 1uM” value read?
The value was 14.6%.

With `C=CCSc1nnc(NC(=O)c2c(CC)noc2C)s1` as the compound, how does the “hERG current change (%, negative = inhibition) at 1uM” value read?
Its value is 8.92%.

Which “hERG current change (%, negative = inhibition) at 1uM” value does the source give for `CCCC(CCC)C(=O)OC1C[C@H]2CC[C@@H](C1)[N+]2(C)C.[Br-]` (stereo partly shown) here?
The value was 7.8%.

For `COc1ccc(-n2c(=O)c3ccccc3c3ccccc3c2=O)c(OC)c1`, which “hERG current change (%, negative = inhibition) at 1uM” value is on record?
The value was 13.4%.

For `COc1cc(/C=N/NC(=O)CCN2CCN(c3ccccc3)CC2)cc(OC)c1OC`, which “hERG current change (%, negative = inhibition) at 1uM” value is on record?
Its value is 4.67%.

For `COc1ccc(-c2cc(C(=O)NNC(=O)c3csc(N4CCOCC4)n3)c3ccccc3n2)cc1`, which “hERG current change (%, negative = inhibition) at 1uM” value is on record?
Its value is 23.5%.

With `CCOC(=O)c1nnn(-c2nonc2N)c1CSc1nnc(N)s1` as the compound, how does the “hERG current change (%, negative = inhibition) at 1uM” value read?
The value was 4.69%.

`CC1CCCCN1CC(=O)Nc1sc2c(c1C#N)CCC2` (stereo not shown) was tested. Which “hERG current change (%, negative = inhibition) at 1uM” value did it give?
Its value is 13.8%.

How did the “hERG current change (%, negative = inhibition) at 1uM” value turn out when `NC(=O)c1ccsc1NC(=O)CS(=O)(=O)c1ccc(F)cc1` was run?
The value was -25.9%.

Which “hERG current change (%, negative = inhibition) at 1uM” value does the source give for `CCN(C(=O)c1cc2c(=O)[nH]c3ccc(C)cc3c2s1)c1cccc(C)c1` here?
The value was 14%.

How did the “hERG current change (%, negative = inhibition) at 1uM” value turn out when `COc1ccccc1N(CC(=O)N1CCCCCC1)S(=O)(=O)c1ccc(C)cc1` was run?
Its value is -4.1%.

With `CCOC(=O)CCN(c1ccccc1)S(=O)(=O)c1ccc(-c2ccc(=O)[nH]n2)s1` as the compound, how does the “hERG current change (%, negative = inhibition) at 1uM” value read?
The value was -6.83%.

With `CN(C)CCCNC(=S)N(CCCN(C)C)Cc1cc2cc3c(cc2[nH]c1=O)OCO3` as the compound, how does the “hERG current change (%, negative = inhibition) at 1uM” value read?
The value was 12.9%.

For `COc1ccc(Cl)cc1NS(=O)(=O)c1cccc(C(=O)NCCCN2CCCC2=O)c1`, which “hERG current change (%, negative = inhibition) at 1uM” value is on record?
The value was 10.8%.

How did the “hERG current change (%, negative = inhibition) at 1uM” value turn out when `Cc1ccccc1NC(=O)c1ccc(S(=O)(=O)N(C)C)cc1` was run?
Its value is 6.02%.

For `Cc1ccc2ncnc(Nc3cccc([N+](=O)[O-])c3)c2c1`, which “hERG current change (%, negative = inhibition) at 1uM” value is on record?
The value was -6.24%.

Which “hERG current change (%, negative = inhibition) at 1uM” value does the source give for `CCCn1ncc(CN2CCN(Cc3ccsc3)C(CCO)C2)c1C` (stereo not shown) here?
Its value is 5.77%.

Which “hERG current change (%, negative = inhibition) at 1uM” value does the source give for `Cc1ccc(C(=O)N2CCCc3ccccc32)c(F)c1F` here?
Its value is 19.1%.

With `O=C(CNC(=S)N(Cc1ccc(F)cc1)C1CCCCC1)NCC1CCCO1` (stereo not shown) as the compound, how does the “hERG current change (%, negative = inhibition) at 1uM” value read?
The value was 8.02%.

For `COc1ccc(Cn2nnnc2CN2CCc3ccccc32)cc1`, which “hERG current change (%, negative = inhibition) at 1uM” value is on record?
The value was 13.1%.

For `Cc1cc(S(=O)(=O)NCCCN2CCOCC2)c(C)cc1Cl`, which “hERG current change (%, negative = inhibition) at 1uM” value is on record?
The value was -0.0197%.

For `CN(C(=O)CC1C(=O)NCCN1Cc1c(F)cccc1Cl)C1CCOCC1` (stereo not shown), which “hERG current change (%, negative = inhibition) at 1uM” value is on record?
Its value is 10.3%.

For `COC(=O)c1ccc(NC(=O)CCS(=O)(=O)c2ccc3c(c2)NC(=O)C(C)S3)cc1` (stereo not shown), which “hERG current change (%, negative = inhibition) at 1uM” value is on record?
Its value is 8.37%.

How did the “hERG current change (%, negative = inhibition) at 1uM” value turn out when `COC(=O)c1cc(COc2ccc3c4c(c(=O)oc3c2)CCC4)c(C)o1` was run?
Its value is 9.97%.

For `O=C(CCCOc1ccccc1)Nc1cc(S(=O)(=O)N2CCOCC2)ccc1N1CCOCC1`, which “hERG current change (%, negative = inhibition) at 1uM” value is on record?
Its value is 1.7%.

Which “hERG current change (%, negative = inhibition) at 1uM” value does the source give for `COc1ccc(NC(=O)c2ccc(-c3ccc(OC)cc3)s2)cc1` here?
Its value is 5.66%.

Which “hERG current change (%, negative = inhibition) at 1uM” value does the source give for `CC(=O)c1cccc(CN2CCN(C(C)C)C(CCO)C2)c1` (stereo not shown) here?
The value was 9.2%.

`COc1ccc2c3n(nc2c1)CCN=C3c1cc(Cl)c(N)c(Cl)c1` was tested. Which “hERG current change (%, negative = inhibition) at 1uM” value did it give?
The value was 16.4%.

With `CCOC(=O)c1c(/N=C/C2C(=O)CC(C)(C)CC2=O)sc(C)c1C` as the compound, how does the “hERG current change (%, negative = inhibition) at 1uM” value read?
Its value is 6.57%.

With `CCC(C)(C)NCC(=O)Nc1ccc(OC(F)(F)F)cc1` as the compound, how does the “hERG current change (%, negative = inhibition) at 1uM” value read?
The value was -6.84%.

Which “hERG current change (%, negative = inhibition) at 1uM” value does the source give for `CSc1ncccc1C(=O)OCC(=O)Nc1cc(C(F)(F)F)ccc1N1CCOCC1` here?
Its value is 6.99%.

How did the “hERG current change (%, negative = inhibition) at 1uM” value turn out when `COc1cc(C(C(=O)NCC2CCCO2)N(C(=O)Cn2nnc3ccccc32)c2ccc(OC)c(OC)c2)ccc1O` (stereo not shown) was run?
Its value is 11.3%.

`Cl.O=C(O)c1ccc(CNCc2ccc(Cl)cc2Cl)cc1` was tested. Which “hERG current change (%, negative = inhibition) at 1uM” value did it give?
The value was 16.4%.

`CCn1cc([N+](=O)[O-])c(C(=O)Nc2ccn(Cc3ccccc3)n2)n1` was tested. Which “hERG current change (%, negative = inhibition) at 1uM” value did it give?
Its value is 3.02%.

For `O=C(N/N=C/c1ccc(Cl)cc1)C1CC12CCC2` (stereo not shown), which “hERG current change (%, negative = inhibition) at 1uM” value is on record?
Its value is 7.16%.

How did the “hERG current change (%, negative = inhibition) at 1uM” value turn out when `CCCCN(C)C(=O)CNC(=O)c1nn(-c2ccc(OC)cc2OC)c(=O)c2ccccc12` was run?
The value was 16%.

`CC1CCCCC12NC(=O)N(CC(=O)OCC(=O)N(C)C1CCCCC1)C2=O` (stereo not shown) was tested. Which “hERG current change (%, negative = inhibition) at 1uM” value did it give?
Its value is 5.56%.

With `Cc1cccc(C(=O)OC(C)CN2C(C)CCCC2C)c1.Cl` (stereo not shown) as the compound, how does the “hERG current change (%, negative = inhibition) at 1uM” value read?
The value was 9.78%.

For `COc1ccc(S(=O)(=O)N(C)c2ccc(C(=O)NC3CC3)cc2)cc1`, which “hERG current change (%, negative = inhibition) at 1uM” value is on record?
The value was 16%.

Which “hERG current change (%, negative = inhibition) at 1uM” value does the source give for `FC(F)(F)c1ccccc1NC(=S)NN1CCOCC1` here?
The value was 11.9%.

`O=[N+]([O-])c1cccc(-c2ccc3nnc(SCc4ccccn4)n3n2)c1` was tested. Which “hERG current change (%, negative = inhibition) at 1uM” value did it give?
Its value is 2.2%.

For `COc1ccc(C(=O)CSc2n[nH]c(-c3ccco3)n2)cc1`, which “hERG current change (%, negative = inhibition) at 1uM” value is on record?
Its value is 10.7%.

With `NS(=O)(=O)c1ccccc1NC(=S)Nc1ccccc1S(N)(=O)=O` as the compound, how does the “hERG current change (%, negative = inhibition) at 1uM” value read?
The value was 7.67%.

`COc1ccccc1C(=O)Nc1cccc2c1CCCC2` was tested. Which “hERG current change (%, negative = inhibition) at 1uM” value did it give?
Its value is 9.17%.

With `CCOC(=O)c1ccccc1CN1C(=O)c2ccccc2S1(=O)=O` as the compound, how does the “hERG current change (%, negative = inhibition) at 1uM” value read?
The value was 11.4%.

`O=C(COc1ccc([N+](=O)[O-])cc1)Nc1cccc2nsnc12` was tested. Which “hERG current change (%, negative = inhibition) at 1uM” value did it give?
Its value is 1.62%.

For `CCn1c(SCC(=O)Nc2nnc(C)s2)nc2c(c1=O)SC(C)C2` (stereo not shown), which “hERG current change (%, negative = inhibition) at 1uM” value is on record?
Its value is 17.4%.

How did the “hERG current change (%, negative = inhibition) at 1uM” value turn out when `O=C(NC1CCCC1)C(c1ccncc1)N(C(=O)Cc1cccs1)c1ccc(F)cc1` (stereo not shown) was run?
The value was 12.1%.

With `CC(C)C(NS(=O)(=O)c1cccc2nsnc12)C(=O)NC1CCCCC1` (stereo not shown) as the compound, how does the “hERG current change (%, negative = inhibition) at 1uM” value read?
Its value is 18.4%.
